# Measured values reported in the supplement of paper PMC4604168 (melanoma cell lines).
# The other results are listed elsewhere or left out. Single values are uncertain, as repeats are few or missing.
# Key:
# Test in all cases: cell count relative to DMSO control; melanoma cells; higher = more viable cells
# Conditions in all cases: library dose: low library concentration; 72 h
# MZ2-MEL = tested on: MZ2-MEL
# MeWo = tested on: MeWo
# RPMI7951 = tested on: RPMI7951
# RVH-421 = tested on: RVH-421
# SkMel28 = tested on: SkMel28
# SkMel30 = tested on: SkMel30
# UACC62 = tested on: UACC62
# WM115 = tested on: WM115
# WM1716 = tested on: WM1716
# WM1745 = tested on: WM1745
# WM3526 = tested on: WM3526
# WM3619 = tested on: WM3619
# WM451Lu = tested on: WM451Lu
# SkMel5 = tested on: SkMel5
# UACC257 = tested on: UACC257
# SkMel2 = tested on: SkMel2
# 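Further: cell number obtained by counting DAPI-stained nuclei in high-throughput microscope images with image analysis software, screen run in 1,536-well plates.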
Structure (SMILES),cell count (MZ2-MEL) [%],cell count (MeWo) [%],cell count (RPMI7951) [%],cell count (RVH-421) [%],cell count (SkMel28) [%],cell count (SkMel30) [%],cell count (UACC62) [%],cell count (WM115) [%],cell count (WM1716) [%],cell count (WM1745) [%],cell count (WM3526) [%],cell count (WM3619) [%],cell count (WM451Lu) [%],cell count (SkMel5) [%],cell count (UACC257) [%],cell count (SkMel2) [%]
"CN(c1ncccc1CNc1nc(Nc2ccc3c(c2)CC(=O)N3)ncc1C(F)(F)F)S(C)(=O)=O + CO[C@H]1C[C@@H]2CC[C@@H](C)[C@@](O)(O2)C(=O)C(=O)N2CCCC[C@H]2C(=O)O[C@H]([C@H](C)C[C@@H]2CC[C@@H](OCCO)[C@H](OC)C2)CC(=O)[C@H](C)/C=C(\C)[C@@H](O)[C@@H](OC)C(=O)[C@H](C)C[C@H](C)/C=C/C=C/C=C/1C [everolimus] (first compound 0.08 µM, partner dose 0.02 µM)",73.5,76.4,66.8,69.9,46.2,63.1,62.3,84.2,73.6,83.7,51.3,63.3,72.1,,,
"CCCS(=O)(=O)Nc1ccc(F)c(C(=O)c2c[nH]c3ncc(Cl)cc23)c1F + Cc1cc(N2CCOCC2)cc2[nH]c(-c3c(NC[C@@H](O)c4cccc(Cl)c4)cc[nH]c3=O)nc12 [BMS536924] (first compound 0.08 µM, partner dose 0.2 µM)",,95.1,102,73.9,81.1,83.1,54.6,88.9,89.6,78.4,55.8,92.3,91.6,87.8,61.7,
"NC1(c2ccc(-c3nc4ccn5c(=O)[nH]nc5c4cc3-c3ccccc3)cc2)CCC1 + Cn1c(=O)n(-c2ccc(C(C)(C)C#N)cc2)c2c3cc(-c4cnc5ccccc5c4)ccc3ncc21 [NVP-BEZ235] (first compound 0.4 µM, partner dose 0.004 µM)",91.5,64.6,73.1,81.5,69.1,64.6,65,66,74.8,95.8,65.8,69.4,84.2,,,67.7
"CN(c1ncccc1CNc1nc(Nc2ccc3c(c2)CC(=O)N3)ncc1C(F)(F)F)S(C)(=O)=O + Cc1nc(Nc2ncc(C(=O)Nc3c(C)cccc3Cl)s2)cc(N2CCN(CCO)CC2)n1 [dasatanib] (first compound 0.08 µM, partner dose 0.004 µM)",61.5,87.2,62.1,90.4,67.8,106,63.2,69.3,82.4,57.7,107,89.4,59.4,,,
"CS(=O)(=O)c1ccc(C(=O)Nc2ccc(Cl)c(-c3ccccn3)c2)c(Cl)c1 [vismodegib] + CN(NC(=O)CC(=O)NN(C)C(=S)c1ccccc1)C(=S)c1ccccc1 [STA4783] (first compound 1 µM, partner dose 0.006 µM)",,92.9,124,99.2,113,81.6,91.5,90,82.3,39.1,108,58.8,121,103,122,111
"CN(c1ncccc1CNc1nc(Nc2ccc3c(c2)CC(=O)N3)ncc1C(F)(F)F)S(C)(=O)=O + NC1(c2ccc(-c3nc4ccn5c(=O)[nH]nc5c4cc3-c3ccccc3)cc2)CCC1 [MK2206] (first compound 0.08 µM, partner dose 0.4 µM)",77.1,79.7,65.9,86.6,75,74.5,70.5,59.5,61.1,86.9,72.3,91.6,68.6,,,74.4
"NC1(c2ccc(-c3nc4ccn5c(=O)[nH]nc5c4cc3-c3ccccc3)cc2)CCC1 + Cn1nnc2c(C(N)=O)ncn2c1=O [temozolomide] (first compound 0.4 µM, partner dose 2 µM)",90.8,76.9,87.6,110,59.7,75.3,69.7,73.1,98,82.6,70.5,70,101,,,90
"CN(c1ncccc1CNc1nc(Nc2ccc3c(c2)CC(=O)N3)ncc1C(F)(F)F)S(C)(=O)=O + Nc1nc(F)nc2c1ncn2[C@@H]1O[C@H](CO)[C@@H](O)[C@@H]1O [fludarabine] (first compound 0.08 µM, partner dose 0.2 µM)",70.2,35.9,70.1,82.4,66,15,76.1,67.1,86.6,83.2,27.6,98,44.7,,,3.59
